# From PMC4336329 (PLoS ONE, 2015)
# The whole screen tested about 310,000 compounds, of which about 2,200 (0.71%) showed an effect of 50% or more. The effect is printed as a negative number. The list shows a part of the results.
# Target: human ether-à-go-go-related gene (hERG) potassium channel (human, UniProt Q12809)
# Assay: primary screen, population patch clamp on CHO cells stably expressing hERG
# Sequence of human ether-à-go-go-related gene (hERG) potassium channel (Q12809 whole entry, looked up): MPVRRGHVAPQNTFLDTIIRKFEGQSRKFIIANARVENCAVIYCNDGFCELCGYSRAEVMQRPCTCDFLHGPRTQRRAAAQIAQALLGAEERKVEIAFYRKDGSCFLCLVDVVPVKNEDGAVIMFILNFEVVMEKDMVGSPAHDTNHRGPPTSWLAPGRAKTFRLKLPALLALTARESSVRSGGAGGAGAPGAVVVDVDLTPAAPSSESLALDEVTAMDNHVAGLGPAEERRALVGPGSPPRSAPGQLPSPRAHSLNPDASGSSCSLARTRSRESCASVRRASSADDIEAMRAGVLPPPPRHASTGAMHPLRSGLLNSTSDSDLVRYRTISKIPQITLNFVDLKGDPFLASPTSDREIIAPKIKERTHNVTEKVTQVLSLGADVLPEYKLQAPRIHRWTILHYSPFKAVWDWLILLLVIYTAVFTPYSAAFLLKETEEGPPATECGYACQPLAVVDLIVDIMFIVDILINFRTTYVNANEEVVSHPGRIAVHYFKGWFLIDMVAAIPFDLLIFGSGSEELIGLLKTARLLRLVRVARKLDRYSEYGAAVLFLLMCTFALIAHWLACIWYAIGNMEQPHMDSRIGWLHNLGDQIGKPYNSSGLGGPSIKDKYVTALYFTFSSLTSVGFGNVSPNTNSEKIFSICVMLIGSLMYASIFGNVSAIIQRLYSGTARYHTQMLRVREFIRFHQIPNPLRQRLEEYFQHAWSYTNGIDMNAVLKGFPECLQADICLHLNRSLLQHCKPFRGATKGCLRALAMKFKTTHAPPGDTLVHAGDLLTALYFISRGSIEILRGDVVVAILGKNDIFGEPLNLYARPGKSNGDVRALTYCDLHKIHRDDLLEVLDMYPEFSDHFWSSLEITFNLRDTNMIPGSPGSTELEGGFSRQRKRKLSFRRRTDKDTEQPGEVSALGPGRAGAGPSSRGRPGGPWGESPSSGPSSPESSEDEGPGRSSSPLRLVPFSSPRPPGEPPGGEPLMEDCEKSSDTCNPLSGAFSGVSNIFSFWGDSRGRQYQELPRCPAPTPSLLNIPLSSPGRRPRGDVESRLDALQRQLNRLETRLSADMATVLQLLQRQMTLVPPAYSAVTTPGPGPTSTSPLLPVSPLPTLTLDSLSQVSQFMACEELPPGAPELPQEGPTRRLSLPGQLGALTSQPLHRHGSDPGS
row,SMILES,"hERG current change (%, negative = inhibition) at 1uM"
1,COc1ccc(C(=O)Nc2ccc(NC(=O)c3ccccc3OC)nc2)cc1,12.9%
2,Cc1ccc(S(=O)(=O)/C(C#N)=C/c2c(N3CC(C)OC(C)C3)nc3c(C)cccn3c2=O)cc1 (centres unmarked),6.49%
3,CCOC(=O)c1ccccc1NC(=O)Cn1cnc2c(cnn2-c2ccc(OC)cc2)c1=O,0.769%
4,CCC(C)[C@H](NC(=O)C1CC(=O)N(c2ccc3c(c2)OCCO3)C1)C(=O)N1CCCCC1 (some centres unmarked),12.2%
5,CCCCC1=CC2=CC(=O)C(C)(OC(=O)CC)C(=O)C2=CN1CCc1ccc(Br)cc1 (centres unmarked),-28.7%
6,COc1ccc(C(=O)NCc2nnc(SCC(=O)N3CCc4ccccc43)n2Cc2ccccc2)cc1,6.84%
7,Cc1ccc(C2=Nc3ccccc3N=C(c3ccc([N+](=O)[O-])cc3)C2)c(O)c1,6.89%
8,CSc1nc2ccc(NC(=O)c3c(F)cccc3F)cc2s1,8.93%
9,Cc1ccc(/C=C2\SC(=S)N(CCC(=O)NCCCN3CCOCC3)C2=O)cc1,16%
10,CCOC(=O)c1ccc(NC(=O)CSc2nnc(C3CC3)n2C)cc1,7.49%
11,Cl.Fc1ccc(Nc2nc(N/N=C/c3ccco3)nc(N3CCCCC3)n2)cc1,6.3%
12,Cc1cc(C(=O)N/N=C\c2cc(C(C)(C)C)ccc2O)n[nH]1,-11.8%
13,Cc1ccc(S(=O)(=O)NCc2ccccc2)cc1C(=O)NCc1ccccn1,10.4%
14,CSc1ccccc1OCc1cc(C(=O)NCCc2ccco2)no1,11.6%
15,Cc1ccc(C2C3=C(Nc4[nH]n(-c5ccccc5)c(=O)c42)c2ccccc2C3=O)cc1 (centres unmarked),4.71%
16,CC(C)Cn1cc(Cl)c(=O)n(CC(C)C)c1=O,22%
17,COc1ccc(N2CCN(CCCNC(=O)C3CCCN(S(=O)(=O)c4cnc[nH]4)C3)CC2)cc1 (centres unmarked),2.44%
18,Cc1ccc(N(CC(=O)NCc2cccnc2)S(C)(=O)=O)cc1C,12.4%
19,Cc1ccc(-c2nnc(NC(=O)c3ccco3)s2)cc1,5.09%
20,COc1ccc(OC)c(C2C(C(=O)c3ccccc3)=C(C)Nc3nc4ccccc4n32)c1 (centres unmarked),6.19%
21,CCN(CC)S(=O)(=O)c1cc(NS(=O)(=O)c2cc(Cl)ccc2Cl)ccc1C,0.0218%
22,O=C(COc1ccccc1Cl)NCCc1ccc2c(c1)OCCO2,6.03%
23,CCCNC(C)C(=O)Nc1ccccc1C.Cl (centres unmarked),15.4%
